Data: PubChem BioAssay (NCI)
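Briefly, cells in 96-well plates were exposed to five compound concentrations for 48 h, and endpoints were estimated by linear interpolation. Abbreviation: GI50, concentration required for 50% inhibition of growth.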 Not every entry of the source has a single result; some have several. The list is limited to them. An entry can have further records. For some assays here: Values given together are repeated measurements (runs, samples, wells, individuals or studies). A tag in brackets gives the origin of a value. Letters hold for one entry only.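 The concentration for full growth arrest is given as TGI.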 For some assays here: The tests behind the records often covered other concentration ranges, not given here; some values may only mark the edge of a range.

Assays:
Assay in all cases: DTP human tumour cell line panel, 48 h
[1] = system: OVCAR-3 ovarian
[2] = system: IGROV1 ovarian
[3] = system: SK-MEL-28 melanoma
[4] = system: SR leukemia
[5] = system: SK-MEL-2 melanoma
[6] = system: KM12 colon
[7] = system: MOLT-4 leukemia
[8] = system: UACC-62 melanoma
[9] = system: NCI-H460 lung
[10] = system: CCRF-CEM leukemia
[11] = system: HCT-15 colon
[12] = system: K-562 leukemia
[13] = system: U251 CNS
[14] = system: SW-620 colon
[15] = system: HL-60(TB) leukemia
[16] = system: SN12C renal
[17] = system: RPMI-8226 leukemia
[18] = system: SK-OV-3 ovarian
[19] = system: SNB-19 CNS

Compound	TGI [1]	GI50 [2]	GI50 [3]	TGI [4]	GI50 [5]	TGI [6]	TGI [7]	TGI [8]	TGI [9]	TGI [10]	TGI [11]	TGI [12]	TGI [13]	TGI [14]	TGI [15]	TGI [16]	TGI [17]	TGI [2]	TGI [18]	TGI [19]
CC[C@@H]1C(=O)N(C)c2cnc(Nc3ccc(C(=O)NC4CCN(C)CC4)cc3OC)nc2N1C1CCCC1	1.78 µM [sample A, mean of 2 tests] and 128 nM [sample B, mean of 3 tests]	5.37 nM [sample A, mean of 2 tests] and 83.2 nM [sample B, mean of 3 tests]	1.09 µM [sample A, 1 test] and < 10.6 nM [sample B, mean of 3 tests]	1.71 µM [sample A, mean of 2 tests] and 96.9 nM [sample B, mean of 3 tests]	5.79 nM [sample A, 1 test] and 1.39 µM [sample B, 1 test]															
CCc1ccc(/C=C\c2cc(OC)c(OC)c(OC)c2)cc1						368 nM and 12 µM	384 nM and 19.6 µM	777 nM and 72.5 µM	779 nM and > 100 µM	498 nM and 17.7 µM	306 nM and 10.2 µM	350 nM and > 100 µM	257 nM and 14.1 µM	509 nM and > 100 µM	80.8 nM and 3.88 µM	537 nM and > 100 µM	534 nM and 13.5 µM	453 nM and > 100 µM	916 nM and > 100 µM	748 nM and > 100 µM
